Assay results as given in PubChem BioAssay AID686978 (National Center for Advancing Translational Sciences (NCATS), 2013).
Out of some 420,000 compounds screened, about 64,000 (15%) were called active. Inconclusive means that the source gave no clear call. Such entries were picked first, then a sample of the others. Calls follow the shape of the dose curve; as a rule, active = well fitted inhibition curve with a large enough effect; inconclusive = small, poorly fitted or top-dose-only effect; inactive = flat fitted curve, though single readings scatter. No potency is given beside an inconclusive call; the fits are too rough.

Assay: qHTS for Inhibitors of human tyrosyl-DNA phosphodiesterase 1 (TDP1): qHTS in cells in absence of CPT; also: nearly all actives have a fitted effect of over 55% in size
Conditions: DT40 Tdp1-/- hTDP1 cells, no CPT, ATP luminescence, 48 h; activity change, negative = growth inhibition: at 46.2 µM (top of the series) unless noted
Procedure, shortened: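 Growth kinetics read by CellTiter-Glo luminescence after ≥48 hr at 37 °C. Cells: DT40 Tdp1-/- stably carrying human TDP1, 400 per well, compound exposure in the absence of CPT (DMSO vehicle).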
% is scaled to controls: 0 for no effect and ±100 for the full control effect; potency is read from the fitted curve at half-maximal effect; tags tell the direction and shape of the fitted curve.

SMILES | Potency | activity change, negative = growth inhibition
CCSS(=O)(=O)c1cccc2cccnc12 | inconclusive [inhibitor, single point] | 
CCOC(=O)c1ccc(N2C(=O)c3n[nH]c(C)c3C2c2ccc(OCC)cc2)cc1 (stereo not given) | active: 10.3 µM | 
COc1ccccc1N1CCN(CCCCNC(=O)c2ccc(-c3ccc(C(C)=O)cc3)cc2)CC1 | inconclusive [inhibitor, single point] | 
O=C(CS(=O)(=O)c1cn(Cc2ccc(Cl)cc2)c2ccccc12)N1CCCC1 | inconclusive [inhibitor, single point] | 
Cn1c(CCN2CCCCC2)nc2cc(NC(=O)COc3ccc(Cl)cc3)ccc21 | inconclusive [inhibitor, single point] | 
CC(O)(COc1ccccc1)c1ccc2c(c1)CN(Cc1cccc3cccnc13)CCO2 (stereo not given) | inconclusive [inhibitor, single point] | 
COc1cccc(NC(=O)c2oc3ccccc3c2NC(=O)C2CC2)c1 | inconclusive [inhibitor, single point] | 
C#CCN1C(=O)C(O)(CC(=O)c2ccc3c(c2)OCCO3)c2ccccc21 (stereo not given) | active: 23.1 µM | 
COC(=O)CN(C)C(=O)c1ccc2nc(Cc3cccc(Cl)c3)oc2c1 |  | inactive: -18.1%
CCNC(=O)c1ccccc1SCc1ccccc1 |  | inactive: -5.84%
Clc1ccc(-c2nc3ccc(Cl)cn3c2Cc2ccsc2)cc1 | inconclusive [inhibitor, single point] | 
COc1ccc(NCC(=O)N/N=C/c2c(C)nn(Cc3ccccc3)c2Cl)cc1 | inconclusive [inhibitor, partial curve, poor fit] | 
CCOc1ccc(C(=O)NCC(c2ccco2)S(=O)(=O)c2cccs2)cc1 (stereo not given) | inconclusive [inhibitor, single point] | 
Cc1ccccc1NC(=O)Cn1c(=O)n(Cc2ccccc2)c(=O)c2sc3ccccc3c21 | inconclusive [inhibitor, partial curve] | 
CC1=C(C(=O)N2CCOCC2)CC(CC(=O)NCCN2CCOCC2)C(=O)N1Cc1ccc(F)cc1 (stereo not given) | inconclusive [inhibitor, single point] | 
O=C(N/N=C/c1ccc([N+](=O)[O-])o1)C1CCCC1 | inconclusive [inhibitor, single point] | 
Cn1c(O)c(N=NC(=O)C2COc3ccccc3O2)c2ccccc21 (stereo not given) | inconclusive [inhibitor, partial curve] | 
O=[N+]([O-])c1ccc(NCCCNS(=O)(=O)c2ccc(Cl)cc2)c(Cl)c1 | active: 20.6 µM | 
COc1ccc(CC(C)N2CCN(Cc3ccccc3)CC2)c(OC)c1 (stereo not given) | inconclusive [inhibitor, single point] | 
O=C(NC1CCCC1)c1cc(-c2ccc(Cl)cc2)on1 |  | inactive: -25.9%
CC1CCc2c(C(=O)Nc3ccc(OC(F)(F)F)cc3)csc2C1 (stereo not given) | inconclusive [inhibitor, single point] | 
COc1cc2sc3cc(NCc4ccc(C)o4)ccc3c(=O)c2cc1OC | active: 14.6 µM | 
CSc1nnc(-c2ccccc2N=Cc2c(C)[nH]n(-c3ccc4ccccc4c3)c2=O)c(=O)[nH]1 | inconclusive [inhibitor, single point] | 
CCCCN(CC)Cc1ccc(CNC(=S)Nc2c(C)cc(C)cc2C)o1 | inconclusive [inhibitor, single point] | 

SMILES | Potency | activity change, negative = growth inhibition
COc1cc2nc(Cl)nc(NC3CC3)c2cc1OC | inconclusive [inhibitor, single point] | 
COc1ccc(CCNC(=O)c2cc(S(=O)(=O)N3CCCCCC3)ccc2OC)cc1OC | inconclusive [inhibitor, partial curve, poor fit] | 
NNC(=O)CNC(=O)c1cccc(Br)c1 |  | inactive: -15.3%
COCCn1c(C)cc(C(=O)CN2C(=O)NC3(CCCCCC3)C2=O)c1C |  | inactive: 2.51%
O=C(c1cccc(S(=O)(=O)N2CCOCC2)c1)N1CCCc2ccccc21 |  | inactive: -12.6%
CCN1CCN(C(=O)c2cc(S(=O)(=O)Nc3ccc(S(C)(=O)=O)cc3)ccc2Cl)CC1 |  | inactive: -9.01%
Cc1ccc(NC(=O)COC(=O)Cn2cnc3ccccc32)c(C)c1 | inconclusive [inhibitor, single point] | 
CC(=O)N1CCN(CC(=O)Nc2c(Cl)ccc(C)c2Cl)CC1 |  | inactive: -5.89%
Cc1ccccc1-c1nn2c(=O)cc(CN3CCN(S(=O)(=O)c4ccc(Cl)cc4)CC3)nc2s1 | inconclusive [inhibitor, partial curve] | 
CCCCC1CCC(C(=O)N(CC(C)C)c2c(N)n(CCCC)c(=O)[nH]c2=O)CC1 (stereo not given) | inconclusive [inhibitor, single point] | 
COc1cccc(CN2CCCC(C(=O)Nc3ccc(-c4cscn4)cc3)C2)c1 (stereo not given) | inconclusive [inhibitor, single point] | 
O=C(CN(C(=O)CCC(=O)Nc1nccs1)c1ccc(F)c(Cl)c1)NCc1ccco1 |  | inactive: -32.7%
c1ccc(-n2cnc3cc(NCc4ccccn4)ccc32)cc1 | inconclusive [inhibitor, single point] | 
Cc1nn(-c2ccc(N3CCCC3)nn2)c(C)c1CCC(=O)N1CCN(c2ccccc2)CC1 | inconclusive [inhibitor, single point] | 
O=C(COC(=O)c1ccc(O)cc1O)N=c1sccn1Cc1ccccc1Cl | inconclusive [inhibitor, single point] | 
CC(NC(=O)CCSc1nc(-c2ccc3c(c2)OCO3)cc(C(F)(F)F)n1)c1ccccc1 (stereo not given) | inconclusive [inhibitor, single point] | 
COc1ccc2cc(C(=O)N3CCN(Cc4ccc5c(c4)OCO5)CC3)[nH]c2c1 |  | inactive: -6.86%
COc1ccc2c(C)c(CCC(=O)NCc3ccc(Cl)cc3)c(=O)oc2c1C | inconclusive [inhibitor, full curve, poor fit] | 
O=C(N/N=C/c1cn(-c2cccs2)nc1-c1ccccc1)c1ccccc1Br | active: 23.1 µM | 
O=C(Nc1cccc(S(=O)(=O)N2CCOCC2)c1)C12CC3CC(CC(C3)C1)C2 | inconclusive [inhibitor, single point] | 
Cc1ccc(C(=O)N2CCN(Cc3nc4sc5c(c4c(=O)[nH]3)CCCC5)CC2)cc1 | active: 20.6 µM | 
COc1ccc(CNC(=O)c2ccc(C(C)(C)C)cc2)cc1 |  | inconclusive: -30.8% [inhibitor]
O=C(CN1C(=O)NC2(CCc3ccccc32)C1=O)NCc1cccc(C(F)(F)F)c1 (stereo not given) |  | inactive: -21.2%
C[n+]1c(/C=C/c2ccc3c(c2)OCO3)ccc2ccccc21 |  | inactive: 2.05%

SMILES | Potency | activity change, negative = growth inhibition
COc1cccc(CN2CCCC(CNC(=O)c3ccc(F)cc3)C2)c1OC (stereo not given) |  | inactive: -19%
CCOC(=O)N1CCN(CC(O)COc2ccccc2C(C)C)CC1 (stereo not given) | inconclusive [inhibitor, single point] | 
CO/N=C(\C(=O)N[C@@H]1C(=O)N2C(C(=O)[O-])=C(C[n+]3cccc4c3CCC4)CS[C@H]12)c1csc(N)n1 |  | inactive: -29.8%
Cc1cnccc1CN(C)Cc1cn(C)nc1-c1ccc(Oc2ccccc2)cc1 | inconclusive [inhibitor, single point] | 
COC(=O)c1ccc(C(=O)OC)c(NC(=O)c2cnn3c(C(F)F)cc(-c4ccccc4)nc23)c1 | inconclusive [inhibitor, partial curve, poor fit] | 
COc1ccccc1C(=O)Nn1c(-c2cccs2)nc2ccccc2c1=O | inconclusive [inhibitor, single point] | 
CC(C)Cc1csc(NC(=O)c2ccc(Br)cc2)c1C(=O)O |  | inactive: 0.147%
O=C(NCCCN1CCCC1)Nc1ccc(F)cc1 |  | inactive: 3.68%
Cc1[nH]c2ccccc2c1C1(O)C(=O)N(Cc2ccccc2Cl)c2ccccc21 (stereo not given) | active: 5.17 µM | 
O=C(CSc1nccc(-c2cccs2)n1)Nc1ccc(F)c(Cl)c1 | inconclusive [inhibitor, partial curve, poor fit] | 
COc1ccc(CN2CCC2(C)C(=O)Nc2ccc(OC)c(OC)c2)cc1 (stereo not given) | inconclusive [inhibitor, single point] | 
O=C(CSc1nnc(-c2ccccc2)o1)OCc1ccccc1 |  | inactive: 2.07%
C=CCN(CC=C)S(=O)(=O)c1ccc(NC(=S)NC(=O)/C=C/c2ccccc2)cc1 | inconclusive [inhibitor, partial curve, poor fit] | 
COc1ccc(-c2cc(NC=O)c3ncc(-c4ccccc4)n3c2)cc1OC | active: 8.2 µM | 
O=C(CSC(=S)N1CCCC1)Nc1ccc(Br)cc1Cl |  | inconclusive: -31.1% [inhibitor]
CCOc1cccc2cc(C(=O)NCc3ccccc3)c(=N)oc12 | inconclusive [inhibitor, single point] | 
Cc1ccc(NC(=O)CSC(C)C(=O)OCc2cc(=O)oc3cc(O)ccc23)cc1 (stereo not given) |  | inactive: -26.6%
COc1cc(NC(=O)Cc2cccs2)c(C(=O)O)cc1OC |  | inactive: -7.01%
CC(O)(c1ccccc1)c1nc(-c2cccc(C#N)c2)cs1 (stereo not given) | inconclusive [inhibitor, partial curve] | 
O=C1NC[C@@H](CCCCN2C[C@H](Cc3ccccc3)N(CCc3ccc(O)cc3)C(=O)C2=O)N(Cc2ccccc2)C1=O |  | inactive: 3.58%
CCc1ccc(S(=O)(=O)Nc2ccc(-c3ccc(N4CCCC4)nn3)cc2)cc1 |  | inactive: -15.3%
Cc1ccccc1NC(=O)[C@H](CSCc1ccccc1)N1Cc2ccccc2C1=O | inconclusive [inhibitor, single point] | 
